# Laboratory results taken from the supplement of paper PMC10369915.
# The list shows a part of the results. Rule as the data show it: active = 3.2 or more and inactive = the rest. The signal is at background level for most entries.
# B1: NDUFS1_Y236 (peptide)
# chain: LTSKPYAFTAR
# B2: NDUFS1_Y236_R241Q (peptide)
# chain: LTSKPYAFTAQ
# B3: NDUFS8_Y84 (peptide)
# chain: PATINYPFEKG
# B4: NDUFS8_Y84_P79L (peptide)
# chain: LATINYPFEKG
# B5: NEDD4_Y627 (peptide)
# chain: ILGRTYYVNHE
# B6: NEDD4_Y627_Y627H (peptide)
# chain: ILGRTHYVNHE
# B7: NEDD4_Y627_YF (peptide)
# chain: ILGRTYFVNHE
# B8: NEDD4L_Y679_Y679C (peptide)
# chain: EMFNPCYGLFE
# B9: NEDD9_Y177_D178N (peptide)
# chain: YQKDVYNIPPS
# B10: NEDD9_Y177_YF (peptide)
# chain: FQKDVYDIPPS
# B11: NEFL_Y442 (peptide)
# chain: RSFPSYYTSHV
# B12: NEFL_Y442_P440L_YF (peptide)
# chain: RSFLSYFTSHV
# B13: NEFL_Y443_P440L (peptide)
# chain: SFLSYYTSHVQ
# B14: NEFL_Y443_YF (peptide)
# chain: SFPSFYTSHVQ
# B15: NEIL3_Y71_V76M_YF (peptide)
# chain: SLFNGYVFSGM
# B16: NEU1_Y242 (peptide)
# chain: GASWRYGSGVS
# B17: NEU1_Y242_G243R (peptide)
# chain: GASWRYRSGVS
# B18: NEU1_Y251 (peptide)
# chain: VSGIPYGQPKQ
# B19: NEU1_Y251_G248S (peptide)
# chain: VSSIPYGQPKQ
# Biological target: SHP2 C-SH2 domain E139D
# Experiment: enrichment score (SH2-bound / input frequency) (ratio); bacterial display of known human phosphotyrosine sites (pTyr-Var adds point mutants) read by sequencing; higher = stronger binding; tyrosines were phosphorylated by kinases first
# Settings: peptide library: pTyr-Var
# 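Also: displayed peptides selected on beads carrying the immobilized SH2 domain, with library peptides lacking any tyrosine serving as negative controls.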
row,Binder,enrichment score
1,B1,inactive: 0.824
2,B2,inactive: 0.935
3,B3,inactive: 0.663
4,B4,inactive: 1.16
5,B5,inactive: 1.51
6,B6,inactive: 1.62
7,B7,inactive: 1.57
8,B8,inactive: 1.19
9,B9,inactive: 0.672
10,B10,inactive: 0.702
11,B11,inactive: 1.15
12,B12,inactive: 2.84
13,B13,active: 3.29
14,B14,inactive: 0.984
15,B15,inactive: 1.73
16,B16,inactive: 0.789
17,B17,inactive: 0.44
18,B18,inactive: 0.657
19,B19,inactive: 0.607

# Biological target: SHP2 C-SH2 domain wild-type
# Experiment: as above
# Settings: peptide library: pTyr-Var
row,Binder,enrichment score
1,B1,inactive: 0.845
2,B2,inactive: 0.842
3,B3,inactive: 0.639
4,B4,inactive: 1.02
5,B5,inactive: 1.85
6,B6,inactive: 2.14
7,B7,inactive: 1.35
8,B8,inactive: 1.04
9,B9,inactive: 0.467
10,B10,inactive: 0.493
11,B11,inactive: 1.02
12,B12,inactive: 1.91
13,B13,active: 3.34
14,B14,inactive: 0.975
15,B15,inactive: 1.45
16,B16,inactive: 0.647
17,B17,inactive: 0.491
18,B18,inactive: 0.57
19,B19,inactive: 0.529

# Biological target: SHP2 N-SH2 domain L43F
# Experiment: as above
# Settings: peptide library: pTyr-Var
row,Binder,enrichment score
1,B1,inactive: 0.795
2,B2,inactive: 0.69
3,B3,inactive: 0.792
4,B4,inactive: 1.08
5,B5,inactive: 1.69
6,B6,inactive: 1.64
7,B7,inactive: 1.28
8,B8,inactive: 1.18
9,B9,inactive: 0.511
10,B10,inactive: 0.534
11,B11,inactive: 0.688
12,B12,inactive: 2.12
13,B13,active: 4.49
14,B14,inactive: 0.948
15,B15,inactive: 1.61
16,B16,inactive: 0.768
17,B17,inactive: 0.42
18,B18,inactive: 0.604
19,B19,inactive: 0.57

# Biological target: SHP2 N-SH2 domain T42A
# Experiment: as above
# Settings: peptide library: pTyr-Var
row,Binder,enrichment score
1,B1,inactive: 0.8
2,B2,inactive: 0.916
3,B3,inactive: 0.575
4,B4,inactive: 0.81
5,B5,inactive: 2.54
6,B6,inactive: 3.05
7,B7,inactive: 1.48
8,B8,inactive: 1.02
9,B9,inactive: 0.488
10,B10,inactive: 0.518
11,B11,inactive: 0.949
12,B12,inactive: 2.32
13,B13,inactive: 2.88
14,B14,inactive: 0.865
15,B15,inactive: 1.56
16,B16,inactive: 0.583
17,B17,inactive: 0.314
18,B18,inactive: 0.588
19,B19,inactive: 0.541

# Biological target: SHP2 N-SH2 domain T52S
# Experiment: as above
# Settings: peptide library: pTyr-Var
row,Binder,enrichment score
1,B1,inactive: 1.31
2,B2,inactive: 0.801
3,B3,inactive: 1.13
4,B4,inactive: 1.15
5,B5,inactive: 1.13
6,B6,inactive: 1.48
7,B7,inactive: 1.3
8,B8,inactive: 1.14
9,B9,inactive: 0.652
10,B10,inactive: 0.634
11,B11,inactive: 1.01
12,B12,inactive: 2.22
13,B13,active: 4.59
14,B14,inactive: 0.947
15,B15,inactive: 1.45
16,B16,inactive: 0.703
17,B17,inactive: 0.606
18,B18,inactive: 0.78
19,B19,inactive: 0.691

# Biological target: SHP2 N-SH2 domain wild-type
# Experiment: as above
# Settings: peptide library: pTyr-Var
row,Binder,enrichment score
1,B1,inactive: 0.817
2,B2,inactive: 0.94
3,B3,inactive: 0.736
4,B4,inactive: 1.01
5,B5,inactive: 1.61
6,B6,inactive: 1.64
7,B7,inactive: 1.59
8,B8,inactive: 1.06
9,B9,inactive: 0.73
10,B10,inactive: 0.592
11,B11,inactive: 0.945
12,B12,inactive: 1.76
13,B13,active: 3.98
14,B14,inactive: 0.961
15,B15,inactive: 1.34
16,B16,inactive: 0.776
17,B17,inactive: 0.331
18,B18,inactive: 0.889
19,B19,inactive: 0.611
